Data reported in the supplement of paper PMC8728848.
The other results are listed elsewhere or left out.

Legend:
Assay in all cases: glycan array binding signal (z-score within array); higher = stronger binding
Conditions in all cases: glycan notation: IUPAC condensed, linker removed
Fuc(a1-2)Gal = molecular target: Fuc(a1-2)Gal
How it was run: (§1)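 Arrays were curated from the Consortium for Functional Glycomics database, 3228 in total, and kept only where the protein sequence was available. Binding is expressed as a within-array Z-score. This score was averaged across arrays of the same protein sequence at different concentrations or buffers and across linkers, and negative values can be read as non-binding.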

Fuc(a1-2)Gal(b1-3)GalNAc = molecular target: Fuc(a1-2)Gal(b1-3)GalNAc
How it was run: as §1

[1] = molecular target: Fuc(a1-2)Gal(b1-3)GalNAc(a1-3)[Fuc(a1-2)]Gal(b1-4)Glc
How it was run: as §1

[2] = molecular target: Fuc(a1-2)Gal(b1-3)GalNAc(a1-3)[Fuc(a1-2)]Gal(b1-4)GlcNAc
How it was run: as §1

[3] = molecular target: Fuc(a1-2)Gal(b1-3)GalNAc(b1-3)Gal
How it was run: as §1

[4] = molecular target: Fuc(a1-2)Gal(b1-3)GalNAc(b1-3)Gal(a1-4)Gal(b1-4)Glc
How it was run: as §1

[5] = molecular target: Fuc(a1-2)Gal(b1-3)GalNAc(b1-4)[Neu5Ac(a2-3)]Gal(b1-4)Glc
How it was run: as §1

Fuc(a1-2)Gal(b1-3)GlcNAc = molecular target: Fuc(a1-2)Gal(b1-3)GlcNAc
How it was run: as §1

[6] = molecular target: Fuc(a1-2)Gal(b1-3)GlcNAc(b1-2)Man(a1-3)[Fuc(a1-2)Gal(b1-3)GlcNAc(b1-2)Man(a1-6)]Man(b1-4)GlcNAc(b1-4)GlcNAc
How it was run: as §1

[7] = molecular target: Fuc(a1-2)Gal(b1-3)GlcNAc(b1-2)Man(a1-3)[Fuc(a1-2)Gal(b1-3)GlcNAc(b1-2)Man(a1-6)]Man(b1-4)GlcNAc(b1-4)[Fuc(a1-6)]GlcNAc
How it was run: as §1

[8] = molecular target: Fuc(a1-2)Gal(b1-3)GlcNAc(b1-3)Gal(b1-4)Glc
How it was run: as §1

[9] = molecular target: Fuc(a1-2)Gal(b1-3)GlcNAc(b1-3)GalNAc
How it was run: as §1

[10] = molecular target: Fuc(a1-2)Gal(b1-3)GlcNAc(b1-3)[Fuc(a1-2)Gal(b1-3)GlcNAc(b1-6)]GalNAc
How it was run: as §1

[11] = molecular target: Fuc(a1-2)Gal(b1-3)GlcNAc(b1-3)[Gal(b1-4)GlcNAc(b1-6)]Gal(b1-4)Glc
How it was run: as §1

[12] = molecular target: Fuc(a1-2)Gal(b1-3)GlcNAc(b1-3)[Neu5Ac(a2-6)Gal(b1-4)GlcNAc(b1-6)]Gal(b1-4)Glc
How it was run: as §1

[13] = molecular target: Fuc(a1-2)Gal(b1-3)GlcNAc6S
How it was run: as §1

[14] = molecular target: Fuc(a1-2)Gal(b1-3)[Fuc(a1-4)]GlcNAc
How it was run: as §1

[15] = molecular target: Fuc(a1-2)Gal(b1-3)[Fuc(a1-4)]GlcNAc(b1-2)Man(a1-3)[Fuc(a1-2)Gal(b1-3)[Fuc(a1-4)]GlcNAc(b1-2)Man(a1-3)]Man(b1-4)GlcNAc(b1-4)GlcNAc
How it was run: as §1

[16] = molecular target: Fuc(a1-2)Gal(b1-3)[Fuc(a1-4)]GlcNAc(b1-2)Man(a1-3)[Fuc(a1-2)Gal(b1-3)[Fuc(a1-4)]GlcNAc(b1-2)Man(a1-6)]Man(b1-4)GlcNAc(b1-4)[Fuc(a1-6)]GlcNAc(b1-4)[Fuc(a1-6)]GlcNAc
How it was run: as §1

[17] = molecular target: Fuc(a1-2)Gal(b1-3)[Fuc(a1-4)]GlcNAc(b1-3)[Fuc(a1-3)[Gal(b1-4)]GlcNAc(b1-6)]Gal(b1-4)Glc
How it was run: as §1

[18] = molecular target: Fuc(a1-2)Gal(b1-3)[Fuc(a1-4)]GlcNAc(b1-3)[Gal(b1-4)GlcNAc(b1-6)]Gal(b1-4)Glc
How it was run: as §1

Fuc(a1-2)Gal(b1-4)Glc = molecular target: Fuc(a1-2)Gal(b1-4)Glc
How it was run: as §1

Fuc(a1-2)Gal(b1-4)Glc6S = molecular target: Fuc(a1-2)Gal(b1-4)Glc6S
How it was run: as §1

Fuc(a1-2)Gal(b1-4)GlcNAc = molecular target: Fuc(a1-2)Gal(b1-4)GlcNAc
How it was run: as §1

[19] = molecular target: Fuc(a1-2)Gal(b1-4)GlcNAc(b1-2)Man
How it was run: as §1

[20] = molecular target: Fuc(a1-2)Gal(b1-4)GlcNAc(b1-2)Man(a1-3)[Fuc(a1-2)Gal(b1-4)GlcNAc(b1-2)Man(a1-6)]Man(b1-4)GlcNAc(b1-4)GlcNAc
How it was run: as §1

[21] = molecular target: Fuc(a1-2)Gal(b1-4)GlcNAc(b1-2)Man(a1-3)[Fuc(a1-2)Gal(b1-4)GlcNAc(b1-2)Man(a1-6)]Man(b1-4)GlcNAc(b1-4)[Fuc(a1-6)]GlcNAc
How it was run: as §1

[22] = molecular target: Fuc(a1-2)Gal(b1-4)GlcNAc(b1-2)[Fuc(a1-2)Gal(b1-4)GlcNAc(b1-4)]Man(a1-3)[Fuc(a1-2)Gal(b1-4)GlcNAc(b1-2)Man(a1-6)]Man(b1-4)GlcNAc(b1-4)GlcNAc
How it was run: as §1

[23] = molecular target: Fuc(a1-2)Gal(b1-4)GlcNAc(b1-3)Gal(b1-4)GlcNAc
How it was run: as §1

[24] = molecular target: Fuc(a1-2)Gal(b1-4)GlcNAc(b1-3)Gal(b1-4)GlcNAc(b1-2)Man(a1-3)[Fuc(a1-2)Gal(b1-4)GlcNAc(b1-3)Gal(b1-4)GlcNAc(b1-2)Man(a1-6)]Man(b1-4)GlcNAc(b1-4)GlcNAc
How it was run: as §1

[25] = molecular target: Fuc(a1-2)Gal(b1-4)GlcNAc(b1-3)Gal(b1-4)GlcNAc(b1-3)Gal(b1-4)GlcNAc
How it was run: as §1

[26] = molecular target: Fuc(a1-2)Gal(b1-4)GlcNAc(b1-3)GalNAc
How it was run: as §1

[27] = molecular target: Fuc(a1-2)Gal(b1-4)GlcNAc(b1-3)[Fuc(a1-2)Gal(b1-4)GlcNAc(b1-6)]GalNAc
How it was run: as §1

[28] = molecular target: Fuc(a1-2)Gal(b1-4)GlcNAc(b1-3)[Fuc(a1-3)[Gal(b1-4)]GlcNAc(b1-6)]Gal(b1-4)Glc
How it was run: as §1

[29] = molecular target: Fuc(a1-2)Gal(b1-4)GlcNAc(b1-6)GalNAc
How it was run: as §1

[30] = molecular target: Fuc(a1-2)Gal(b1-4)GlcNAc6S
How it was run: as §1

[31] = molecular target: Fuc(a1-2)Gal(b1-4)[Fuc(a1-3)]GlcNAc
How it was run: as §1

B1: Pwp3 (Candida glabrata) (protein)
chain: MGSSHHHHHHSSGLVPRGSHMASKNPVDFTTVCQFPDNFSKKPGFLATTARLGLWITGNSYKELLNYPGTFTLTTQQASTTTPNIQLRGTDLFTTIYGLTVYPLYLLVELQGYFVPTQSGMYTFSLTGSDDAAIIFIGNPSTFPCDAFKTWPQATANDITVTDSINPSRTLYMVKGVAYPLRIAYYNGLGNGVLNAAFTDPSGTKRTDWNGYIWQYDQCSTCTYK
- glycan array binding signal (z-score) (Fuc(a1-2)Gal): -0.2
- glycan array binding signal (z-score) (Fuc(a1-2)Gal(b1-3)GalNAc): -0.278
- glycan array binding signal (z-score) [1]: -0.244
- glycan array binding signal (z-score) [2]: -0.193
- glycan array binding signal (z-score) [3]: -0.264
- glycan array binding signal (z-score) [4]: -0.289
- glycan array binding signal (z-score) [5]: 1.11
- glycan array binding signal (z-score) (Fuc(a1-2)Gal(b1-3)GlcNAc): 0.514
- glycan array binding signal (z-score) [6]: 0.634
- glycan array binding signal (z-score) [7]: -0.575
- glycan array binding signal (z-score) [8]: -0.35
- glycan array binding signal (z-score) [9]: -0.269
- glycan array binding signal (z-score) [10]: -0.579
- glycan array binding signal (z-score) [11]: -0.395
- glycan array binding signal (z-score) [12]: 0.149
- glycan array binding signal (z-score) [13]: -0.354
- glycan array binding signal (z-score) [14]: -0.092
- glycan array binding signal (z-score) [15]: -0.661
- glycan array binding signal (z-score) [16]: -0.34
- glycan array binding signal (z-score) [17]: -0.367
- glycan array binding signal (z-score) [18]: -0.178
- glycan array binding signal (z-score) (Fuc(a1-2)Gal(b1-4)Glc): -0.212
- glycan array binding signal (z-score) (Fuc(a1-2)Gal(b1-4)Glc6S): -0.442
- glycan array binding signal (z-score) (Fuc(a1-2)Gal(b1-4)GlcNAc): -0.402
- glycan array binding signal (z-score) [19]: -0.152
- glycan array binding signal (z-score) [20]: -0.499
- glycan array binding signal (z-score) [21]: -0.47
- glycan array binding signal (z-score) [22]: -0.356
- glycan array binding signal (z-score) [23]: -0.212
- glycan array binding signal (z-score) [24]: -0.363
- glycan array binding signal (z-score) [25]: -0.021
- glycan array binding signal (z-score) [26]: -0.321
- glycan array binding signal (z-score) [27]: -0.552
- glycan array binding signal (z-score) [28]: 1.32
- glycan array binding signal (z-score) [29]: -0.453
- glycan array binding signal (z-score) [30]: -0.116
- glycan array binding signal (z-score) [31]: -1.06
